About 540 (0.36%) of roughly 150,000 compounds showed an effect of 50% or more. The list shows a part of the results.
Test system: Plasmodium falciparum
Test: Primary screen in NF54 nanoGlo assay, in single point, at 2uM, 72h; a lower Z score goes with more inhibition
Format: functional, Erythrocyte
Conditions: timepoint 72 hour

**Q.** Which “% Inhibition” value does the source give for `COc1cccc(-c2nc3ccc(-c4ccc(Cl)cc4C)cn3c2CCC(=O)NCc2ccccc2)c1` here?
**A.** 7%

**Q.** And the Z score?
**A.** -0.86

**Q.** For `Cc1ccc([C@@H]2Cn3nnc(C(=O)N4CCC(C(=O)NCCN5CCCC5)CC4)c3CO2)cc1`, which “% Inhibition” value is on record?
**A.** -20%

**Q.** And the Z score?
**A.** 1.82

**Q.** `CCc1ncc(S(=O)(=O)N2CCCc3ncccc32)s1` was tested. Which “% Inhibition” value did it give?
**A.** 18%

**Q.** And the Z score?
**A.** -2.26

**Q.** For `Cc1cnc(CCN2C(=O)[C@H](Cc3ccccc3)N(C)C2=O)s1`, which “% Inhibition” value is on record?
**A.** -7%

**Q.** And the Z score?
**A.** 0.73

**Q.** `COc1cc(OC)cc(C2CCN(C(C(N)=O)c3ccccc3)C2)c1` (stereo not drawn) was tested. Which “% Inhibition” value did it give?
**A.** 4%

**Q.** And the Z score?
**A.** -0.51

**Q.** Which “% Inhibition” value does the source give for `CC(C)(C)c1nnnn1CN1CCN(c2ncccn2)CC1` here?
**A.** -6%

**Q.** And the Z score?
**A.** 0.83

**Q.** What does the source list for `O=C(Cc1ccc(-c2ccccc2)cc1)NC1CCNCC1F` (stereo not drawn)?
**A.** % Inhibition: 0%; Z score: 0.01

**Q.** How did the “% Inhibition” value turn out when `Cn1nc(C2CC2)cc1N1CCN(C(=O)NCc2cccs2)CC1` was run?
**A.** 13%

**Q.** And the Z score?
**A.** -1.75

**Q.** How did the “% Inhibition” value turn out when `Cc1cc(NC(=O)Nc2cnn(C)c2)cnc1N1CCCC[C@@H]1C` was run?
**A.** 2%

**Q.** What about the Z score of the same molecule?
**A.** -0.2

**Q.** For `COC(C)[C@H](C)NC(=O)c1cnn2c(-c3cccnc3)ccnc12` (stereo partly drawn), which “% Inhibition” value is on record?
**A.** -9%

**Q.** What about the Z score of the same molecule?
**A.** 1.4

**Q.** `Cn1cnn(CCOc2ccc(Cl)cc2)c1=O` was tested. Which “% Inhibition” value did it give?
**A.** -1%

**Q.** And the Z score?
**A.** 0.25

**Q.** For `COc1cccc(C(=O)N2CCC3(CC2)N[C@@H](CC(C)C)C(=O)N3Cc2cccc(C(F)(F)F)c2)c1`, which “% Inhibition” value is on record?
**A.** -10%

**Q.** And the Z score?
**A.** 1.84

**Q.** What does the source list for `O[C@H]1CCN(Cc2csc3c2CCCC3)C1`?
**A.** % Inhibition: -5%; Z score: 0.98

**Q.** With `Cn1nnc2c(N3CC4CCC(NC(=O)C(C)(F)F)CC4C3)ncnc21` (stereo not drawn) as the molecule, how does the “% Inhibition” value read?
**A.** 3%

**Q.** What about the Z score of the same molecule?
**A.** -0.64

**Q.** What does the source list for `Cc1nsc(C(=O)NCCCN2CCOCC2)n1`?
**A.** % Inhibition: -11%; Z score: 1.65

**Q.** With `Cc1nn(C)c2ncnc(N3CCCN(CC(C)C)CC3)c12` as the molecule, how does the “% Inhibition” value read?
**A.** -10%

**Q.** And the Z score?
**A.** 1.81

**Q.** `CC(NCC1CCN(C2CC2)C1)c1ccccc1N(C)C` (stereo not drawn) was tested. Which “% Inhibition” value did it give?
**A.** 5%

**Q.** And the Z score?
**A.** -0.89

**Q.** For `CC[C@H](NCc1ccc(Br)o1)c1noc(C)n1`, which “% Inhibition” value is on record?
**A.** -11%

**Q.** What about the Z score of the same molecule?
**A.** 1.17

**Q.** How did the “% Inhibition” value turn out when `Cc1ccc2c(Nc3ccc(C)c(Cl)c3)c(C(=O)N3CCCCC3)cnc2n1` was run?
**A.** -3%

**Q.** And the Z score?
**A.** 0.46

**Q.** Which results are given for `COc1ccccc1C[C@H](C)N1CCC(CCC(=O)NC2CC2)CC1`?
**A.** % Inhibition: -12%; Z score: 1.11

**Q.** Which results are given for `O=C1CCC2(CCN(c3cnc4ccccc4n3)CC2)CN1Cc1cccnc1`?
**A.** % Inhibition: 5%; Z score: -0.69

**Q.** What does the source list for `O=C(NCCc1ccsc1)N[C@H]1CCOC2(CCOCC2)C1`?
**A.** % Inhibition: 2%; Z score: -0.31

**Q.** `O=C(Nc1nnnn1C1CC1)[C@H]1CCCO1` was tested. Which “% Inhibition” value did it give?
**A.** -4%

**Q.** What about the Z score of the same molecule?
**A.** 0.44

**Q.** Which “% Inhibition” value does the source give for `CCc1cccc(NC(=O)c2ncn3c2C(=O)N(C2CC2)[C@](C)(C(=O)NCc2ccc(F)cc2)C3)c1` here?
**A.** -14%

**Q.** And the Z score?
**A.** 1.37

**Q.** Which results are given for `O=C(NCC1CC1)[C@]1(F)CCCN(Cc2ccc3[nH]ccc3c2)C1`?
**A.** % Inhibition: -17%; Z score: 1.47

**Q.** `C[C@H](Nc1ncc(Cl)cn1)C(=O)NC1CCCC1` was tested. Which “% Inhibition” value did it give?
**A.** -2%

**Q.** What about the Z score of the same molecule?
**A.** 0.35

**Q.** What does the source list for `CC(C)n1ccnc1-c1cc(O)cc(CC[C@H]2CCCCN2)c1`?
**A.** % Inhibition: -1%; Z score: 0.08

**Q.** With `COC(=O)c1ccc(C)c(NC(=O)c2cc(C)n(C)c2C)c1` as the molecule, how does the “% Inhibition” value read?
**A.** -10%

**Q.** And the Z score?
**A.** 1.05

**Q.** What does the source list for `CCN(C)C(=O)C1CN(C(=O)NC(C)(C)C)CC1c1cc(OC)c(OC)c(OC)c1` (stereo not drawn)?
**A.** % Inhibition: -9%; Z score: 1

**Q.** With `COc1ccc(-n2ccnc(NC(=O)c3cccc(F)c3)c2=O)cc1` as the molecule, how does the “% Inhibition” value read?
**A.** 3%

**Q.** And the Z score?
**A.** -0.39

**Q.** For `N#Cc1c(F)cccc1NCC(F)(F)CN`, which “% Inhibition” value is on record?
**A.** -7%

**Q.** And the Z score?
**A.** 1.19

**Q.** Which results are given for `O=C(Nc1nc(-c2ccc3c(c2)OCCO3)cs1)c1ccc(Cl)s1`?
**A.** % Inhibition: -8%; Z score: 1.55

**Q.** Which “% Inhibition” value does the source give for `COCCN(CC1CN(Cc2ccsc2)CC1c1cccc(F)c1)C(=O)C(C)C` (stereo not drawn) here?
**A.** 30%

**Q.** And the Z score?
**A.** -0.45

**Q.** What does the source list for `COCC(=O)N1CCC2(CCC(=O)N(CC3CC3)CC2)CC1`?
**A.** % Inhibition: -13%; Z score: 1.51

**Q.** What does the source list for `CS(=O)(=O)c1ccc(Cl)c(S(=O)(=O)N2CC(N3CCNC3=O)C2)c1`?
**A.** % Inhibition: -4%; Z score: 0.72

**Q.** What does the source list for `Cc1ccc(OC2CCN(C(=O)c3cn(C4CCNCC4)nn3)CC2)cc1C`?
**A.** % Inhibition: -6%; Z score: 1.1

**Q.** `CC[C@H](C)N(CC(=O)Nc1cccc(C)c1C)C(=O)c1cscn1` was tested. Which “% Inhibition” value did it give?
**A.** -2%

**Q.** What about the Z score of the same molecule?
**A.** 0.3

**Q.** What does the source list for `O=C(Cn1ccccc1=O)N1CC[C@@]2(CCCN(CC3CC3)C2=O)C1`?
**A.** % Inhibition: 2%; Z score: -0.33

**Q.** For `c1ccc(CNc2nnc(-c3ccco3)o2)cc1`, which “% Inhibition” value is on record?
**A.** -22%

**Q.** What about the Z score of the same molecule?
**A.** 2.26

**Q.** How did the “% Inhibition” value turn out when `O=C(c1c(F)cccc1F)N1CCN(c2nc3nccc(-c4cccs4)n3n2)CC1` was run?
**A.** 5%

**Q.** And the Z score?
**A.** -0.52

**Q.** Which “% Inhibition” value does the source give for `COCCN1CCC[C@H](NC(=O)c2cn(C)nc2COC)C1` here?
**A.** -4%

**Q.** What about the Z score of the same molecule?
**A.** 0.52

**Q.** With `CCCc1[nH]nc(-c2ccccc2OC)c1NC(=O)c1ccc2c(c1)OCO2` as the molecule, how does the “% Inhibition” value read?
**A.** 7%

**Q.** What about the Z score of the same molecule?
**A.** -0.91

**Q.** With `Cc1ccc(C2CN(C(=O)c3ccccc3C)CC2C(=O)NCc2ccccn2)cc1` (stereo not drawn) as the molecule, how does the “% Inhibition” value read?
**A.** -10%

**Q.** What about the Z score of the same molecule?
**A.** 1.54

**Q.** With `Cc1noc(C)c1CC(=O)N1CC[C@H](n2cc(COc3cnccn3)nn2)C1` as the molecule, how does the “% Inhibition” value read?
**A.** -8%

**Q.** What about the Z score of the same molecule?
**A.** 1.14

**Q.** What does the source list for `CCC(CC)(C(=O)N1CC[C@H](OC(F)F)C1)c1ccc(OC)c(OC)c1`?
**A.** % Inhibition: -29%; Z score: 3.41

**Q.** Which results are given for `Cc1nc(-c2ccc(C)c(-n3cc(C(=O)Nc4ccc(F)c(Cl)c4)c(C)n3)c2)no1`?
**A.** % Inhibition: -6%; Z score: 0.68

**Q.** How did the “% Inhibition” value turn out when `Cc1nc([C@H](NC(=O)c2cnsn2)c2ccc(Cl)cc2)no1` was run?
**A.** -2%

**Q.** What about the Z score of the same molecule?
**A.** 0.27

**Q.** For `Cc1ccc(C)n1[C@@H](C)C(=O)N1CCCC1`, which “% Inhibition” value is on record?
**A.** -8%

**Q.** What about the Z score of the same molecule?
**A.** 1.09

**Q.** `c1ncnc(NCCCCN2CCCCCC2)n1` was tested. Which “% Inhibition” value did it give?
**A.** -3%

**Q.** What about the Z score of the same molecule?
**A.** 0.56

**Q.** Which “% Inhibition” value does the source give for `CC(C)NC(=O)[C@@H]1C[C@@H](NC2CCN(Cc3ccccc3)CC2)CN1Cc1ccccc1Cl` here?
**A.** 6%

**Q.** What about the Z score of the same molecule?
**A.** -0.77

**Q.** Which “% Inhibition” value does the source give for `CCCCCOCC(=O)N1C2CCCC1CC(F)(F)C2` here?
**A.** -9%

**Q.** And the Z score?
**A.** 1.22

**Q.** How did the “% Inhibition” value turn out when `COc1cccc(NS(=O)(=O)c2c(C)c(-c3nnc(C4CC4)o3)n(C)c2C)c1` was run?
**A.** -6%

**Q.** And the Z score?
**A.** 0.8

**Q.** With `CCC(CC)C(=O)N1CCc2cc(S(=O)(=O)N3CCOCC3)ccc21` as the molecule, how does the “% Inhibition” value read?
**A.** -5%

**Q.** What about the Z score of the same molecule?
**A.** 0.48

**Q.** For `Cc1c(C(=O)OCc2ccccc2)sc(=S)n1-c1ccc(Cl)cc1`, which “% Inhibition” value is on record?
**A.** -19%

**Q.** And the Z score?
**A.** 3.52
